Reference: patent US20260242476A1 (BINACEA PHARMA, published 2026)
Read-outs that look alike come from different tables or passages of the source.

What was measured:
[1] = biological target: T1, human PD-1 ECD antigen with human Fc tag on C-terminus (Acro Biosystems) (human, UniProt Q15116 partial chain); assay: BLI (Gator), human PD-1 ECD Fc-tag antigen
T1 construct: Bought; also called human PD-1 ECD-Fc; human PD-1 ECD with Fc-tag; not shown: human Fc tag at the C-terminus

[2] = biological target: T2, recombinant cynomolgus monkey PD-1 ECD fused at its C-terminus to a human Fc tag (Acro Biosystems) (cynomolgus monkey); assay: BLI (Gator Prime), cyno PD-1 ECD-Fc antigen
T2 construct: Bought; also called cyno PD-1 ECD Fc-tag; cyno PD-1 ECD-Fc

[3] = biological target: T3, recombinant human PD-1 ECD with His tag (Acro Biosystems) (human, UniProt Q15116 partial chain); assay: BLI (Gator), human PD-1 ECD His-tag antigen
T3 construct: also called human PD-1 ECD-His tag; hu-PD-1 ECD His tag; not shown: His tag

[4] = biological target: T3, recombinant human PD-1 ECD with His tag …; assay: BLI (Gator Prime), VHH-Fc captured on anti-human IgG Fc probe, 1:1 fit
[5] = biological target: T1, human PD-1 ECD antigen with human Fc …; assay: BLI (Gator), human PD-1 ECD Fc-tag antigen; remark: listed apart in the source

Binder	Kd [2] [nM]	koff [2] [s⁻¹]	kon [2] [M⁻¹ s⁻¹]	Kd [4] [nM]	koff [4] [s⁻¹]	kon [4] [M⁻¹ s⁻¹]	Kd [5] [nM]	koff [5] [s⁻¹]	kon [5] [M⁻¹ s⁻¹]	further results
anti-PD-1 VHH antibody clone 3A6 (bivalent VHH-Fc) (Fc fusion, Group 1 llama VHH fused to human IgG1 hinge-Fc; bivalent; also called Clone 3A6 VHH) QVQLQESGGGLVQAGGSLRLSCTASGRTFSNYAMGWIRQVSGKELEFVAAISSSGVLRNYADSVKGRFTISRDNAKNTVYLQMNSLKPEDTALYSCAENRRYYGDWRDLNYDSRGQGTQVTVSS[human IgG1 Fc left out]	1.3	8.97e-05	68900	32.8	0.00693	212000				Kd [1]: 1.81 nM; koff [1]: 0.000254 s⁻¹; kon [1]: 140000 M⁻¹ s⁻¹; koff [3]: 0.00693 s⁻¹; kon [3]: 212000 M⁻¹ s⁻¹
anti-PD-1 VHH antibody clone 3H9 (bivalent VHH-Fc) (Fc fusion, Group 1 llama VHH fused to human IgG1 hinge-Fc; bivalent; also called Clone 3H9 VHH) QVQLVESGGGLVQAGGSLRLSCTASGRTFSNYAMGWIRQVSGKELEFVAAISSSGVLRNYADSVKGRFTISRDNAKNTVYLQMNSLKPEDTALYSCAANRRYYGDWRDLNYDSRGQGTLVTVSS[human IgG1 Fc left out]	1.12	0.000168	151000							
anti-PD-1 VHH antibody clone 4C10 (bivalent VHH-Fc) (Fc fusion, Group 1 llama VHH fused to human IgG1 hinge-Fc; bivalent; also called Clone 4C10 VHH) QVKLEESGGGLVQAGGSLRLSCTASGRTFSNYAMGWIRQVSGKELEFVAAISSSGVLRNYADSVKGRFTISRDNAKNTVYLQMNSLKPEDTALYSCAAIRRYYGDWRDLNYDSRGQGTLVTVSS[human IgG1 Fc left out]	2.21	0.000257	116000	39.1	0.00969	248000				
anti-PD-1 VHH antibody clone 4G7 (bivalent VHH-Fc) (Fc fusion, Group 1 llama VHH fused at its C-terminus to human IgG1 hinge-Fc; bivalent heavy-chain-only format, expressed in ExpiCHO; also called Clone 4G7 VHH) QVKLEESGGGLVQAGGSLRLSCTASGRTFSNYAMGWIRQVSGKELEFVAAISSSGVLRNYADSVKGRFTISRDNAKNTVYLQMNSLKPEDTALYSCAANRRYYGDWRDLNYDSRGQGTLVTVSS[human IgG1 Fc left out]	0.749	0.00012	160000	35.3	0.00712	202000				
humanized anti-PD-1 VHH antibody clone 3A6-hu01 (Fc fusion, also called 3A6-01) EVQLQESGGGLVQPGGSLRLSCSASGRTFSNYAMGWIRQVSGKELEFVAAISSSGVLRNYADSVKGRFTISRDNSKNTVYLQMNSLRAEDTAVYYCAENRRYYGDWRDLNYDSWGQGTQVTVSS[human IgG1 Fc left out]										Kd [1]: 1.63 nM; koff [1]: 0.000179 s⁻¹; kon [1]: 109000 M⁻¹ s⁻¹; Kd [3]: 21.6 nM; koff [3]: 0.00677 s⁻¹; kon [3]: 313000 M⁻¹ s⁻¹
humanized anti-PD-1 VHH antibody clone 3A6-hu02 (Fc fusion, not restated for the humanized clones) EVQLQESGGGLVQAGGSLRLSCSASGRTFSNYAMGWVRQVSGKELEFVAAISSSGVLRNYADSVKGRFTISRDNSKNTVYLQMNSLKPEDTAVYYCAENRRYYGDWRDLNYDSWGQGTQVTVSS[human IgG1 Fc left out]										Kd [3]: 52.2 nM; koff [3]: 0.00571 s⁻¹; kon [3]: 109000 M⁻¹ s⁻¹
humanized anti-PD-1 VHH antibody clone 3A6-hu03 (Fc fusion, not restated for the humanized clones) EVQLQESGGGLVQAGGSLRLSCTASGRTFSNYAMGWIRQVSGKELEFVAAISSSGVLRNYADSVKGRFTISRDNAKNTVYLQMNSLKPEDTALYSCAENRRYYGDWRDLNYDSRGQGTQVTVSS[human IgG1 Fc left out]										Kd [3]: 69.6 nM; koff [3]: 0.0185 s⁻¹; kon [3]: 266000 M⁻¹ s⁻¹
humanized anti-PD-1 VHH antibody clone 3H9-hu01 (Fc fusion, not restated for the humanized clones; also called 3H9-01) EVQLVESGGGLVQAGGSLRLSCTASGRTFSNYAMGWIRQVSGKELEFVAAISSSGVLRNYADSVKGRFTISRDNAKNTVYLQMNSLKPEDTALYSCAANRRYYGDWRDLNYDSRGQGTLVTVSS[human IgG1 Fc left out]										Kd [1]: 1.87 nM; koff [1]: 0.000249 s⁻¹; kon [1]: 133000 M⁻¹ s⁻¹
anti-PD-1 VHH antibody clone 3D5 (bivalent VHH-Fc) (Fc fusion, Group 2 llama VHH fused to human IgG1 hinge-Fc; bivalent; also called Clone 3D5 VHH) heavy: QVQLQESGGGLVQAGGSLTLSCAASGGTFNYYAMGWFRQAPGLEREFVAAISGSGGSAGYSESAKDRFTISRDNAKKTVYLQMNSLKPEDTAVYYCAADRPNSGSYIPTQRYEYDYWGQGTQVTVSS[human IgG1 Fc left out]	1.85	0.000198	107000	23.9	0.00186	77800	2.56	0.000195	76300	
anti-PD-1 VHH antibody clone 3C4 (bivalent VHH-Fc) (Fc fusion, Group 2 llama VHH fused to human IgG1 hinge-Fc; bivalent; also called Clone 3C4 VHH) heavy: QVKLEESGGGLVQAGGSLTLSCAASGGTFNYYAMGWFRQAPGLEREFVAAISGSGGSAGYSESAKDRFTISRDNAQKTVYLQMNSLKPEDTAVYYCAADIPNSGSYIPTRRYEYDYWGRGTQVTVSS[human IgG1 Fc left out]	1.16	0.000122	105000	33.5	0.00329	98100				
anti-PD-1 VHH antibody clone 3E10 (bivalent VHH-Fc) (Fc fusion, Group 2 llama VHH fused to human IgG1 hinge-Fc; bivalent; also called Clone 3E10 VHH) QVQLVESGGGLVQAGGSLTLSCAASGGTFNYYAMGWFRQAPGLEREFVAAISGSGGSAGYSESAKDRFTISRDNAKKTVYLQMNSLKPEDTAVYYCAADRPNSGSYIPTRIYEYDYWGRGTLVTVSS[human IgG1 Fc left out]	2.61	0.000245	93800	59.6	0.00446	74800				
humanized anti-PD-1 VHH antibody clone 3D5-hu02 (Fc fusion, not restated for the humanized clones) EVQLQESGGGLVQAGGSLTLSCAASGGTFNYYAMGWFRQAPGKEREFVAAISGSGGSAGYSESAKDRFTISRDNAKKTVYLQMNSLKPEDTAVYYCAADRPNSGSYIPTQRYEYDYWGQGTQVTVSS[human IgG1 Fc left out]							3.81	0.000266	69800	
humanized anti-PD-1 VHH antibody clone 3D5-hu01 (Fc fusion, not restated for the humanized clones) EVQLQESGGGLVQAGGSLTLSCAASGGTFNYYAMGWFRQAPGLEREFVAAISGSGGSAGYSESAKDRFTISRDNAKKTVYLQMNSLKPEDTAVYYCAADRPNSGSYIPTQRYEYDYWGQGTQVTVSS[human IgG1 Fc left out]							3.02	0.000236	78200	
humanized anti-PD-1 VHH antibody clone 3D5-hu03 (Fc fusion, not restated for the humanized clones) EVQLQESGGGLVQPGGSLTLSCAASGGTFNYYAMGWVRQAPGKEREFVAAISGSGGSAGYSESAKDRFTISRDNSKNTVYLQMNSLRAEDTAVYYCAADRPNSGSYIPTQRYEYDYWGQGTQVTVSS[human IgG1 Fc left out]							6.48	0.000378	58300	
humanized anti-PD-1 VHH antibody clone 3D5-hu04 (Fc fusion, not restated for the humanized clones) EVQLQESGGGLVQAGGSLTLSCAASGGTFNYYAMGWVRQAPGKEREFVAAISGSGGSAGYSESAKDRFTISRDNSKNTVYLQMNSLKPEDTAVYYCAADRPNSGSYIPTQRYEYDYWGQGTQVTVSS[human IgG1 Fc left out]							7.4	0.000454	61300	
